Measurements taken from PubChem BioAssay (NCATS).
This list was built around the results that the source calls inconclusive (neither active nor inactive); the mix of calls is not that of the screen. Where the call is inconclusive, the potency comes from a doubtful curve fit. The source holds several records for some structures; these can differ, active in one and inactive in another. Active and inactive are the calls of the source. Calls come from the whole dose curve; as a rule, active = well fitted inhibition curve with a large enough effect; inconclusive = small, poorly fitted or top-dose-only effect; inactive = no such curve, though single readings can be large or run the other way.

These compounds were tested against Cytochrome P450 2C9 (Homo sapiens) (UniProt P11712) (assay: qHTS Assay for Inhibitors and Substrates of Cytochrome P450 2C9 (AID 883; note: nearly all actives have a fitted effect of over 60% in size)). Conditions: recombinant CYP2C9, luciferin-H luminescence, 60 min; activity change, negative = inhibition: at 11.4 µM (top of the series) unless noted.
Method: NIH Molecular Libraries Screening Centers Network [MLSCN] NIH Chemical Genomics Center [NCGC] MLSCN Grant: None NCGC Assay Overview: The P450 gene superfamily is involved in the metabolism and clearance of xenobiotics. This assay used human CYP2C9 to measure the hydroxylation of deoxyluciferin (Luciferin-H; P450 Glo-Buffer) to luciferin. The luciferin is then measured by luminescence after the addition of a luciferase detection reagent. Luciferin-H concentration in the assay was equal to its Michaelis constant KM for CYP2C9. Inhibitors and some substrates limit the production of luciferin, and decrease measured luminescence.
NCGC Assay Protocol Summary: Two uL of enzyme and substrate mix (final concentrations: 10nM CYP2C9, 100uM Luciferin-H, 25mM KPO4) were dispensed into a white, solid bottom 1536-well microtiter plate. 23nL of compound was transferred by a pin tool. The plate was incubated at 37C for 10 min. Two uL of an NADPH regeneration solution (Promega supplied reagent) was dispensed and the reaction was allowed to continue for 60 min at 37C. Then the reaction was stopped by reconstituted P450 Glo-Buffer. After another 20 min of incubation the plate was read on the ViewLux (Perkin Elmer) at 60 sec exposure and 2x2 binning. This protocol was carried out with Promega-Glo reagents and further information can be found at http://www.promega.com/tbs/tb325/tb325.pdf. Data were normalized to the to AC100 inhibition (57uM sulphaphenazole). Keywords: P450, CYP2C9, Luciferase, MLSMR, MLSCN, NIH Roadmap, qHTS, NCGC
% is set by controls: 0 for no effect and ±100 for the full control effect; potency is the fitted concentration of half-maximal effect; tags give direction and shape of the fitted curve.

Sequence of UniProt P11712 (P11712 whole entry, looked up): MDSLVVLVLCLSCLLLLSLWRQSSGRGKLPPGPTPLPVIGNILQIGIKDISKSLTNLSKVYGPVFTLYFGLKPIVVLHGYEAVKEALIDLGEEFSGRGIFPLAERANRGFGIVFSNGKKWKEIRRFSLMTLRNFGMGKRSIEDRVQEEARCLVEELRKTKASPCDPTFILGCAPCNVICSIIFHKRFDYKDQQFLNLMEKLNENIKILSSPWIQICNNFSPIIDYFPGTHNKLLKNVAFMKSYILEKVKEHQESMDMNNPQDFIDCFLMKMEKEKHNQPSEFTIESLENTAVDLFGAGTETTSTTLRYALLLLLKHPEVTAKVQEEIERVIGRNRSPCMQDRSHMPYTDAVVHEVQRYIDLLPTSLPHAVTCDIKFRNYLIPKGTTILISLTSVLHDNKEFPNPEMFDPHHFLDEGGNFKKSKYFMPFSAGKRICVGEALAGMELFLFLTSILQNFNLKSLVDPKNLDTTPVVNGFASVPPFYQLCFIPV

Q: How did the Potency turn out when `COC(=O)C/C=C\[C@@H](C)[C@@H](/C=N\O[C@@H](C)CN1CCCc2nc(C)c(C)cc21)NS(=O)(=O)c1ccc(C)cc1` was run?
A: inconclusive: 3.16 µM [inhibitor, single point]

Q: For `CC(=O)OC[C@@H]1O[C@H](C/C=N\O[C@@H](C)c2cc(-c3c(C)cc(C)cc3C)no2)C=C[C@@H]1OC(C)=O`, which Potency is on record?
A: inconclusive: 3.16 µM [inhibitor, single point]

Q: Which Potency does the source give for `CC[C@H](C(=O)c1cccs1)C(O)(C(F)(F)F)C(F)(F)F` here?
A: inconclusive: 7.94 µM [inhibitor, single point]

Q: For `O=c1c(-c2ccccc2)nc2cnc(Oc3ccccc3)nc2n1Cc1cccs1`, which Potency is on record?
A: inconclusive: 3.16 µM [inhibitor, full curve]

Q: With `C=CC[C@@H]1C=C[C@H](O/N=C\[C@@H](C)[C@H](OCc2ccccc2)C(C)C)[C@H](CO)O1` as the compound, how does the Potency read?
A: inconclusive: 3.98 µM [inhibitor, single point]

Q: For `CC1CCC2C(=O)N3CCCC3C(=O)N2C1c1ccc(Br)cc1` (stereo not given), which Potency is on record?
A: active: 631 nM and inactive

Q: `COc1ccc2[nH]cc(CCNc3ncncc3-c3ccc(N(C)C)cc3)c2c1` was tested. Which Potency did it give?
A: active: 0.501 µM

Q: How did the “activity change, negative = inhibition” value turn out when `O[C@@H]1CC[C@H]2Cc3ccccc3N=C21` was run?
A: inactive: -11.6% [at 57.1 µM]

Q: With `CCOC(=O)Nc1nc(-c2ccccc2)c(C)s1` as the compound, how does the Potency read?
A: inconclusive: 7.94 µM [inhibitor, single point]

Q: How did the Potency turn out when `CC(=O)OC[C@@H]1O[C@H](C/C=N\OC[C@@H](C)[C@H](OCc2ccccc2)C(C)C)C=C[C@@H]1OC(C)=O` was run?
A: inconclusive: 6.31 µM [inhibitor, single point]

Q: For `CC(C)C[C@@H](CC(=O)N[C@H](CC(=O)N[C@@H]1CCCC[C@H]1C(=O)N[C@H](CC(=O)N[C@@H](CCC(=O)O)CC(=O)O)Cc1c[nH]c2ccccc12)C(C)C)NC(=O)[C@@H]1CCCC[C@H]1N`, which “activity change, negative = inhibition” value is on record?
A: inactive: -26.1% [at 57.1 µM]

Q: For `CCOC(=O)[C@@H](O)Cc1cnc2ccccc2n1`, which Potency is on record?
A: inconclusive: 3.98 µM [inhibitor, single point]

Q: With `COc1ccccc1CNc1ccnc(-c2ccoc2)n1` as the compound, how does the Potency read?
A: inconclusive: 1.26 µM [inhibitor, partial curve]

Q: Which Potency does the source give for `CCCC[C@@H]1C[C@H]1C(NC(=O)c1ccco1)c1ccc(C(=O)OC)cc1` (stereo not given in full) here?
A: active: 0.794 µM

Q: For `CC(C)[C@@H](CC(=O)N[C@@H]1CCCC[C@H]1C(=O)N[C@H](CC(=O)N[C@@H](CCC(=O)O)CC(=O)O)Cc1c[nH]c2ccccc12)NC(=O)C[C@H](Cc1ccccc1)NC(=O)[C@@H]1CNCC[C@H]1N`, which “activity change, negative = inhibition” value is on record?
A: inactive: -14.8% [at 57.1 µM]

Q: Which Potency does the source give for `Cc1cc(C(C)(C)C)cc(CNC2CCCCC2)c1O` here?
A: inconclusive: 7.94 µM [inhibitor, single point]

Q: With `O=C(O)c1ccccc1-c1ccccc1C(=O)Nc1ccc2c(c1)Cc1ccccc1-2` as the compound, how does the Potency read?
A: inconclusive: 3.16 µM [inhibitor, single point]

Q: Which “activity change, negative = inhibition” value does the source give for `Cc1cn([C@H]2C=C[C@H](CO)O2)c(=O)[nH]c1=O` here?
A: inactive: 2.34% [at 57.1 µM]

Q: With `CCC(C)(C)c1ccc(Oc2cccc(C(=O)O)c2)cc1` as the compound, how does the Potency read?
A: inconclusive: 5.01 µM [inhibitor, single point]

Q: Which Potency does the source give for `COC(=O)[C@@]1(Cc2ccc(OC)cc2)[C@H]2c3cc(C(=O)N4CCCC4)n(CCc4c[nH]c5cc(F)ccc45)c3C[C@H]2CN1C(=O)c1ccccc1` here?
A: active: 3.16 µM

Q: Which Potency does the source give for `COc1ccc(O[C@H]2C=C[C@@H](c3ccccc3)O[C@H]2COC(=O)CC/C(C)=N\O[C@@H](C)c2cn([C@H](CO)Cc3ccccc3)nn2)cc1` here?
A: inconclusive: 2.51 µM [inhibitor, partial curve]

Q: For `CCCCN1CSC(=S)N(Cc2ccccc2)C1`, which Potency is on record?
A: inconclusive: 7.94 µM [inhibitor, single point]

Q: How did the Potency turn out when `COc1cccc(Cn2c(=O)c(-c3cc(F)cc(F)c3)nc3cnc(OC)nc32)c1` was run?
A: inconclusive: 3.16 µM [inhibitor, full curve]

Q: With `C[C@]12CC[C@H]3c4ccc(OC[C@H]5CO5)cc4CC[C@H]3[C@H]1CC[C@@H]2O` as the compound, how does the Potency read?
A: inconclusive: 3.16 µM [inhibitor, partial curve]

Q: How did the Potency turn out when `CC(=O)N[C@@H](c1ccccc1)[C@]1(C)C[C@H]1[C@@H](C)C(=O)Nc1ccc2ccccc2c1` was run?
A: active: 6.31 µM

Q: `COC(=O)[C@@]1(Cc2ccccc2)[C@H]2c3cc(C(=O)N4CCCC4)n(Cc4ccc(C(F)(F)F)nc4)c3C[C@H]2CN1C(=O)c1ccccc1` was tested. Which Potency did it give?
A: active: 5.01 µM

Q: For `c1ccc2c(CSCc3cccc4ccccc34)cccc2c1`, which Potency is on record?
A: inconclusive: 3.16 µM [inhibitor, single point]

Q: With `O=S(=O)(c1ccccc1)N1CN2CN(C1)CN(S(=O)(=O)c1ccccc1)C2` as the compound, how does the Potency read?
A: inconclusive: 0.631 µM [inhibitor, full curve]

Q: Which Potency does the source give for `CCCC[C@@H]1C[C@H]1C(NC(=O)c1ccccc1)c1ccc(-c2ccccc2)cc1` (stereo not given in full) here?
A: inconclusive: 2 µM [inhibitor, full curve]

Q: How did the Potency turn out when `COc1ccc(O[C@H]2C=C[C@@H](c3ccccc3)O[C@H]2COC(=O)CC/C(C)=N\O[C@@H](C)c2cn([C@H]3COC[C@H]3O)nn2)cc1` was run?
A: inconclusive: 2.51 µM [inhibitor, partial curve]

Q: With `N=C(c1ccc2ccccc2c1)c1ccccc1Cc1ccccc1` as the compound, how does the Potency read?
A: inconclusive: 7.94 µM [inhibitor, single point]

Q: For `NS(=O)(=O)c1cc(Br)c(N=Nc2ccc(O)c3ncccc23)c(Br)c1`, which “activity change, negative = inhibition” value is on record?
A: inactive: 254%

Q: How did the Potency turn out when `COc1ccc(OC)c(-c2cc(C(=O)O)c3cc4ccccc4cc3n2)c1` was run?
A: inconclusive: 3.16 µM [inhibitor, single point]

Q: How did the “activity change, negative = inhibition” value turn out when `COC(=O)/C=C/C1c2ccccc2C(OC)C1C` (stereo not given) was run?
A: inactive: 2.29%

Q: How did the “activity change, negative = inhibition” value turn out when `CC(=O)Oc1cc(OC(C)=O)c2c(=O)cc(-c3ccc(OC(C)=O)c(OC(C)=O)c3)oc2c1` was run?
A: inactive: -19.5% [at 57.1 µM]

Q: Which Potency does the source give for `N#C/C(=C\N1CCNC1=S)C(=O)c1ccc2ccccc2c1` here?
A: inconclusive: 3.16 µM [inhibitor, single point]

Q: `CCCNC(=O)OC[C@@H]1O[C@H](CCO/N=C(\C)CCN2CCCCc3nc(C)c(C)cc32)C=C[C@@H]1Oc1ccc(OC)cc1` was tested. Which Potency did it give?
A: inconclusive: 3.98 µM [inhibitor, single point]

Q: With `c1cncc(CNc2ncncc2-c2ccc3c(c2)OCO3)c1` as the compound, how does the Potency read?
A: inconclusive: 0.794 µM [inhibitor, partial curve]

Q: Which Potency does the source give for `COC(=O)C1=C(C)N(Cc2ccccc2)[C@]23O[C@](C(=O)OC)(C(=O)N2C1c1ccccc1)C1CCCC(=O)C13` (stereo not given in full) here?
A: inactive

Q: With `COCOc1cc(OC)ccc1C(=O)/C=C\c1ccc2c(c1)OCO2` as the compound, how does the Potency read?
A: active: 2.51 µM
